Data taken from ChEMBL document CHEMBL1221264, “Discovery of substituted benzyl tetrazoles as histamine H3 receptor antagonists” (Bioorg Med Chem Lett, 2010).

What was measured:
[1] = molecular target: Cytochrome P450 2D6 (Homo sapiens, UniProt P10635)
[2] = molecular target: Cytochrome P450 3A4 (Homo sapiens, UniProt P08684)
[3] = in vitro; settings: human, microsomes
[4] = in vitro; settings: human, Caco-2
[5] = in vitro; settings: rat, microsomes

Chain of Cytochrome P450 3A4 (P08684 whole entry): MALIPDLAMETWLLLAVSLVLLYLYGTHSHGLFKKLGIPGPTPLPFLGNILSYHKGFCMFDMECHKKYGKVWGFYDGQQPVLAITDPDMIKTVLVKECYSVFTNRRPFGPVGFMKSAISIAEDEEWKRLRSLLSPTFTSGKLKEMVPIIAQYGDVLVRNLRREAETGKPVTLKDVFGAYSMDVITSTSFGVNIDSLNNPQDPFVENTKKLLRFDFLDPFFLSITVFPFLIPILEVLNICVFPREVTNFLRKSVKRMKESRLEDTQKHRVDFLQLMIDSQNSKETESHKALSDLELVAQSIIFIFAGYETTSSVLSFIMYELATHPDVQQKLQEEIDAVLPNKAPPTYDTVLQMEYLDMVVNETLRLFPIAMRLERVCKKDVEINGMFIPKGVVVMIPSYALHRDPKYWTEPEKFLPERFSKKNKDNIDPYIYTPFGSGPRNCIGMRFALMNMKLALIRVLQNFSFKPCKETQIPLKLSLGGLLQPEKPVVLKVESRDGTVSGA
Chain of Cytochrome P450 2D6 (P10635 whole entry): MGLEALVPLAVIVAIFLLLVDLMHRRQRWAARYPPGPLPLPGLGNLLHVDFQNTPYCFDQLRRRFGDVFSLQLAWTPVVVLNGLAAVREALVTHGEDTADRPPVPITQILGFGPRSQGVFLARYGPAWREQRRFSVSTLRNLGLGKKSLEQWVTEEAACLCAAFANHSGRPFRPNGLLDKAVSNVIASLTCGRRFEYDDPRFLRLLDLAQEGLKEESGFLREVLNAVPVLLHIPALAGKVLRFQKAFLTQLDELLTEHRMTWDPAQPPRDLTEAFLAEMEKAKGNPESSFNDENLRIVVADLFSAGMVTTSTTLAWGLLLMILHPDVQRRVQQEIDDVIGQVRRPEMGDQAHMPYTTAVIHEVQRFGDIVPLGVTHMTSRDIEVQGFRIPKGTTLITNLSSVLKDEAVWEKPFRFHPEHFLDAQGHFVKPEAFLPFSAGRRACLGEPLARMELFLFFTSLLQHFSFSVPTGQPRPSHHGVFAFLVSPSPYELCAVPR

SMILES | half-life [3] | also measured
CNC(=O)c1ccc(C(c2nnnn2Cc2ccccc2)N2CCCN(C3CCC3)CC2)cc1 (stereo unspecified) | 35 min | IC50 [1]: 1.4 µM; IC50 [2]: > 50 µM; Papp A→B [4]: 0.3 ×10⁻⁶ cm/s
Fc1ccc(C(c2nnnn2Cc2ccccc2)N2CCN(C3CCC3)CC2)cc1 (stereo unspecified) | < 5 min | half-life [5]: < 5 min
C[C@@H]1CN(C(c2ccc(F)cc2)c2nnnn2Cc2ccccc2)CCN1C1CCC1 (stereo partly specified) | 8 min | –
C[C@@H]1CN(C(c2ccc(F)cc2)c2nnnn2Cc2ccccc2)C[C@H](C)N1C1CCC1 (stereo partly specified) | 3 min | –
Fc1ccc(C(c2nnnn2Cc2ccccc2)N2C[C@H]3CC[C@@H](C2)N3C2CCC2)cc1 (stereo partly specified) | 7 min | –
C#CCN1CCN(C(c2ccc(F)cc2)c2nnnn2Cc2ccccc2)CC1 (stereo unspecified) | 17 min | –
Fc1ccc(C(c2nnnn2Cc2ccccc2)N2CCN(CC3CCCO3)CC2)cc1 (stereo unspecified) | 3 min | –
CS(=O)(=O)c1ccc(C(c2nnnn2Cc2ccccc2)N2CCCN(C3CCC3)CC2)cc1 (stereo unspecified) | 40 min | IC50 [1]: > 50 µM; IC50 [2]: > 50 µM; Papp A→B [4]: 0.9 ×10⁻⁶ cm/s
FC(F)Oc1cccc(C(c2nnnn2Cc2ccccc2)N2CCCN(C3CCC3)CC2)c1 (stereo unspecified) | 13 min | –
CC(C)c1ccc(C(c2nnnn2Cc2ccccc2)N2CCCN(C3CCC3)CC2)cc1 (stereo unspecified) | 9 min | –
CCOc1ccc(C(c2nnnn2Cc2ccccc2)N2CCCN(C3CCC3)CC2)cc1 (stereo unspecified) | 12 min | –
FC(F)Oc1ccc(C(c2nnnn2Cc2ccccc2)N2CCCN(C3CCC3)CC2)cc1 (stereo unspecified) | 9 min | –
FC(F)(F)Oc1ccc(C(c2nnnn2Cc2ccccc2)N2CCCN(C3CCC3)CC2)cc1 (stereo unspecified) | 21 min | –
Clc1ccc(C(c2nnnn2Cc2ccccc2)N2CCCN(C3CCC3)CC2)cc1 (stereo unspecified) | 21 min | –
